{"source": "PubChem BioAssay AID686971", "about": "(National Center for Advancing Translational Sciences (NCATS), 2013)", "note": "Out of some 360,000 compounds screened, about 7,500 (2.1%) were called active. Inconclusive means that the source gave no clear call. Such entries were picked first, then a sample of the others. Calls come from the whole dose curve; as a rule, active = well fitted cell-killing curve with a large enough effect; inconclusive = small, poorly fitted or top-dose-only effect, or effect the other way, or another doubt; inactive = no such curve, though single readings can be large or run the other way. No potency is given beside an inconclusive call; the fits are too rough. Potency is the fitted concentration of half-maximal effect; tags give direction and shape of the fitted curve.", "data": [{"experiment": "qHTS for induction of synthetic lethality in tumor cells producing 2HG: qHTS for the HT-1080-IDH1KD cell line", "conditions": "HT-1080 IDH1 knockdown viability, ATP luminescence, 48 h; series mostly up to 46.1 µM", "procedure,_shortened": "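Luminescent ATP read-out (CellTiter-Glo, 10 min at room temperature) after 48 h compound exposure at 37 °C gave viability of IDH1-knockdown HT-1080 cells. Activity was normalised to DMSO and cell-free wells, then fitted as concentration-response curves.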", "values": [{"compound": "O=C(NCO)c1cccnc1", "Potency": "inactive"}, {"compound": "Cc1ccc(CNc2ncnc3cc(Cl)ccc23)cc1", "Potency": "active: 23.1 µM"}, {"compound": "CSc1cccc(NC(=O)CN(c2ccccc2)S(=O)(=O)N(C)C)c1", "Potency": "inconclusive [cytotoxic, single point]"}, {"compound": "CC1=C(c2ccccc2)C(O)(c2ccccc2)C(C)C1=O", "note": "(centres undefined)", "Potency": "inconclusive [cytotoxic, single point]"}, {"compound": "O=C(NC(=S)Nc1cccc2[nH]ncc12)c1ccccc1", "Potency": "inconclusive [cytotoxic, single point]"}, {"compound": "O=C1CN(C(=O)Cn2ncc(Cl)c(Cl)c2=O)c2ccccc2N1", "Potency": "active: 4.11 µM"}, {"compound": "CCc1ccc2nc(N(CCN(C)C)C(=O)c3ccc4ccccc4c3)sc2c1", "Potency": "inactive"}, {"compound": "O=C(NCc1cccc(C(F)(F)F)c1)C1CC(c2c(Cl)cccc2Cl)=NO1", "note": "(centres undefined)", "Potency": "inconclusive [cytotoxic, single point]"}, {"compound": "Cc1[nH]n(-c2ccc([N+](=O)[O-])cc2)c(=O)c1C=NCCN1CCN(C(=O)c2cccc(F)c2)CC1", "Potency": "active: 16.4 µM"}, {"compound": "Cc1ccc(/C=N/NC(=O)c2ccc3c(c2)OCCO3)s1", "Potency": "active: 13 µM"}, {"compound": "CCOc1ccccc1OCC(=O)N/N=C(\\C)Cc1ccc(OC)cc1", "Potency": "inconclusive [cytotoxic, single point]"}, {"compound": "COc1ccc(O)cc1CN1CCN(c2ncc(Cc3ccccc3)cn2)CC1", "Potency": "inconclusive [cytotoxic, single point]"}, {"compound": "CCC(=O)N1CCc2cc(Br)cc(S(=O)(=O)N(C)c3ccc(OC)cc3OC)c21", "Potency": "inconclusive [cytotoxic, single point]"}, {"compound": "CNC(=O)c1nnsc1S(=O)c1ccc(Cl)cc1", "note": "(centres undefined)", "Potency": "active: 23.1 µM"}, {"compound": "CC1CN(S(=O)(=O)c2cccc(C(=O)OC/C(O)=C(\\C#N)c3nc4ccccc4[nH]3)c2)CC(C)O1", "note": "(centres undefined)", "Potency": "inconclusive [cytotoxic, single point]"}, {"compound": "CCOC(=O)c1ccccc1NS(=O)(=O)c1ccccc1", "Potency": "inactive"}, {"compound": "CC(=O)C1=C(C)NC(SCC(=O)c2cc(Cl)ccc2Cl)=C(C#N)C1c1ccco1", "note": "(centres undefined)", "Potency": "inconclusive [cytotoxic, partial curve]"}, {"compound": "COCCCNC(=O)CSc1c2c(nc3ccc(Cl)cc13)CCCC2", "Potency": "inconclusive [cytotoxic, single point]"}, {"compound": "Cc1cc2nc(-c3ccc(F)cc3)c(CC(C)(C)C)n2c(C)c1Br", "Potency": "inconclusive [cytotoxic, single point]"}, {"compound": "CC(O)(c1cccc(F)c1)c1nc(/C=C/c2ccccc2)cs1", "note": "(centres undefined)", "Potency": "inconclusive [cytotoxic, single point]"}, {"compound": "CCOc1cc(/C=C2\\SC(=N)N(c3nccs3)C2=O)ccc1OCCN1CCOCC1", "Potency": "inconclusive [cytotoxic, partial curve]"}, {"compound": "O=C(Nc1ccc(S(=O)(=O)NC2=NCCCCC2)cc1)c1ccc([N+](=O)[O-])s1", "Potency": "inconclusive [cytotoxic, single point]"}, {"compound": "CCCCC(=O)NNC(=S)NC(=O)c1cccc([N+](=O)[O-])c1", "Potency": "inconclusive [cytotoxic, single point]"}, {"compound": "Clc1ccc(N/N=C/c2ccncc2)cc1Cl", "Potency": "inconclusive [cytotoxic, single point]"}, {"compound": "O=C(Nc1sc(-c2ccccc2)cc1C(=O)O)c1ccccc1", "Potency": "inconclusive [cytotoxic, single point]"}, {"compound": "Cc1ccsc1C(=O)NCC(c1cccs1)N1CCOCC1", "note": "(centres undefined)", "Potency": "inconclusive [cytotoxic, single point]"}, {"compound": "CC(C)CNC(=O)COC(=O)c1c2c(nc3ccccc13)/C(=C\\c1cccs1)CC2", "Potency": "inconclusive [cytotoxic, single point]"}, {"compound": "Cn1cnnc1SCC(=O)c1c(N)n(Cc2ccccc2)c(=O)n(C)c1=O", "Potency": "inconclusive [rising, single point]"}, {"compound": "COc1cc(CNn2cn[nH]c2=S)cc(Cl)c1OCc1ccccc1", "Potency": "inconclusive [cytotoxic, single point]"}, {"compound": "COc1ccc(NC(=O)CN(c2ccccc2OC)S(=O)(=O)c2cccs2)cc1Cl", "Potency": "inconclusive [cytotoxic, single point]"}, {"compound": "Cc1cccc(NC(=S)N=Nc2c(O)[nH]c3ccccc23)c1", "Potency": "inconclusive [cytotoxic, partial curve]"}, {"compound": "Cc1cc2nc(C3CCCN(C(=S)Nc4ccccc4C)C3)[nH]c2cc1C", "note": "(centres undefined)", "Potency": "inconclusive [cytotoxic, single point]"}, {"compound": "c1ccc2c(-c3cc(C4CCNCC4)[nH]n3)cccc2c1", "Potency": "active: 20.6 µM"}, {"compound": "CC1CC1C(=O)Nc1nc(-c2ccc(Cl)s2)cs1", "note": "(centres undefined)", "Potency": "inactive"}, {"compound": "COc1ccc(C(=O)O/N=C(\\N)Cc2ccc(Cl)cc2)cc1OC", "Potency": "inconclusive [cytotoxic, single point]"}, {"compound": "CC(C)(C)OC(=O)[C@H](Cc1ccccc1)NC(=O)c1[nH]cnc1C(=O)Nc1ccccc1F", "Potency": "inconclusive [cytotoxic, single point]"}, {"compound": "CC(O)CNc1nc2ccccc2n1-c1ncnc2sc3c(c12)CCC3", "note": "(centres undefined)", "Potency": "inconclusive [cytotoxic, partial curve]"}, {"compound": "COc1ccc(CN(C)C2c3ccccc3-c3ccccc32)cc1", "Potency": "inconclusive [cytotoxic, single point]"}, {"compound": "Cc1cccc(C(=O)Nc2nnc(-c3ccncc3)o2)c1", "Potency": "inactive"}, {"compound": "O=C(CSc1cccc[n+]1[O-])c1ccccc1Br", "Potency": "inconclusive [cytotoxic, single point]"}, {"compound": "Cc1ccc(-c2cc(C(F)(F)F)n3nc(C(=O)NCCCn4ccnc4)cc3n2)cc1C", "Potency": "inconclusive [cytotoxic, single point]"}, {"compound": "CCCCCC(=O)N1C[C@@H](n2cc(-c3ccc(F)cc3)nn2)[C@H](O)C[C@@H]1c1ccc(OC)cc1", "Potency": "inconclusive [cytotoxic, single point]"}, {"compound": "O=C(NC1CCN(Cc2ccccc2)CC1)c1ccccc1OCc1ccccc1Cl", "Potency": "inconclusive [cytotoxic, single point]"}, {"compound": "O=c1[nH][nH]c2c1C(c1cccc(C(F)(F)F)c1)OC(CCc1ccccc1)C2", "note": "(centres undefined)", "Potency": "inconclusive [cytotoxic, single point]"}, {"compound": "C/C(=N/NC(N)=S)c1ccc(Br)s1", "Potency": "inconclusive [cytotoxic, single point]"}, {"compound": "CC(C)CNS(=O)(=O)c1cc(C(=O)OCC(=O)c2ccc3c(c2)OCCO3)c(Cl)cc1Cl", "Potency": "inactive"}, {"compound": "Oc1ccccc1N1CCN(c2ncnc3scc(-c4ccccc4)c23)CC1", "Potency": "inconclusive [cytotoxic, single point]"}, {"compound": "CCCn1cnc2c(SCc3ccccc3Cl)nc(N)nc21", "Potency": "inconclusive [cytotoxic, single point]"}, {"compound": "CC(C)CN(Cc1c(O)ccc2c3c(c(=O)oc12)CCC3)CC(C)C", "Potency": "inconclusive [rising, single point]"}, {"compound": "Oc1ccc(Nc2nc(N3CCCC3)c3ccccc3n2)cc1", "Potency": "inconclusive [cytotoxic, partial curve]"}, {"compound": "O=C1CCCC2=C1C(c1ccc(O)c(O)c1)Nc1ccc3ccccc3c12", "note": "(centres undefined)", "Potency": "inconclusive [cytotoxic, single point]"}, {"compound": "COc1ccc(C(=O)N/N=C/c2ccc3cccc(O)c3n2)cc1", "Potency": "inconclusive [cytotoxic, single point]"}, {"compound": "CC1=CC(C)C(/C=N/N=C(N)N)C(C)C1", "note": "(centres undefined)", "Potency": "active: 16.4 µM"}, {"compound": "O=C(c1ccco1)N1CCN(Cc2nc3cc(Cl)ccc3c(=O)[nH]2)CC1", "Potency": "inconclusive [cytotoxic, single point]"}, {"compound": "Cc1nn(C)c(C(=O)Sc2ccccc2)c1[N+](=O)[O-]", "Potency": "inconclusive [cytotoxic, single point]"}, {"compound": "CCCC(=O)NC(c1ccc2c(c1)OCO2)c1cc(Cl)c2cccnc2c1O", "note": "(centres undefined)", "Potency": "active: 3.66 µM"}, {"compound": "CCc1cc(N2CCOCC2)cc2c1[nH]c1ccccc12", "Potency": "inconclusive [cytotoxic, single point]"}, {"compound": "Cc1ccc2c(c1)-c1c(ssc1=S)C(C)(C)N2C(=O)CSc1nncn1C", "Potency": "inactive"}, {"compound": "CCCOc1ccc(C(=O)N/N=C/c2c[nH]c3ccc(Br)cc23)cc1", "Potency": "inconclusive [cytotoxic, single point]"}, {"compound": "Cc1csc(NC(=O)CSc2nc3[nH]c(=O)cc(O)c3s2)n1", "Potency": "active: 5.17 µM"}, {"compound": "COc1ccccc1-n1cnc2cc(C(=O)NC3CCCC3)ccc21", "Potency": "inconclusive [cytotoxic, single point]"}, {"compound": "CC(C)CC1c2[nH]c3ccccc3c2CCN1C(=O)c1cnccn1", "note": "(centres undefined)", "Potency": "inconclusive [cytotoxic, partial curve]"}, {"compound": "O=c1c2ccccc2nnn1CSc1nnc(-c2cccs2)n1Cc1ccccc1", "Potency": "inconclusive [cytotoxic, single point]"}, {"compound": "Cc1[nH]c2ccccc2c1/C=C/c1cc[n+](C)cc1", "Potency": "inactive"}, {"compound": "Cc1cc(C(=O)NC2CCCc3c2cnn3-c2cccc(C)c2C)no1", "note": "(centres undefined)", "Potency": "inconclusive [cytotoxic, full curve]"}, {"compound": "CCCCCCCCCCS(=O)(=O)N/N=C/c1ccccc1OC", "Potency": "inconclusive [cytotoxic, single point]"}, {"compound": "O=S1(=O)CCN(Cc2cccc(C(F)(F)F)c2)CC1", "Potency": "inactive"}, {"compound": "Cc1cc(C)c(C(=O)CC(=O)c2ccccc2Cl)c(O)c1", "Potency": "inconclusive [cytotoxic, single point]"}, {"compound": "COC(=O)C1=CN(C(C)C)C=C(C(=O)OC)C1c1cc(Br)c(OC)c(OC)c1", "Potency": "inconclusive [cytotoxic, single point]"}]}]}
